US20080254026A1 (published 2008)

Legend:
[1] = target: T1, TRAF2 (human, UniProt Q12933 2-501); assay: immunoprecipitation of CD40 from normal human B cells, Western blot
T1 construct: Detected by Western blot in CD40 immunoprecipitates
T1 sequence (looked up): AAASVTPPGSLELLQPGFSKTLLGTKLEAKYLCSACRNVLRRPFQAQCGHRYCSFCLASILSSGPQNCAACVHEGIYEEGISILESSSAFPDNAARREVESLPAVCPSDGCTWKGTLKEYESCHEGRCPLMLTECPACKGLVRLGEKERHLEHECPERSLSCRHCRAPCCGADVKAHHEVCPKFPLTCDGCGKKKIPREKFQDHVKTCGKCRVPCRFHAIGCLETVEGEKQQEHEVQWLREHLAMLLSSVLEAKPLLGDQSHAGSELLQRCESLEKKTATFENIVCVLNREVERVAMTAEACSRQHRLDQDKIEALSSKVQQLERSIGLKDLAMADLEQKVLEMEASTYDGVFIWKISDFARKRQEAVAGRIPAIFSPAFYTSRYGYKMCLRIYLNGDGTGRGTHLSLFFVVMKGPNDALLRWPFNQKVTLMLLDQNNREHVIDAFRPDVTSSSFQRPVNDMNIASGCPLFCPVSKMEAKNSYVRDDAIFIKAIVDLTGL

[2] = target: T2, TRAF3 (human, UniProt Q13114 1-568); assay: as above
T2 construct: Detected by Western blot in CD40 immunoprecipitates
T2 sequence (looked up): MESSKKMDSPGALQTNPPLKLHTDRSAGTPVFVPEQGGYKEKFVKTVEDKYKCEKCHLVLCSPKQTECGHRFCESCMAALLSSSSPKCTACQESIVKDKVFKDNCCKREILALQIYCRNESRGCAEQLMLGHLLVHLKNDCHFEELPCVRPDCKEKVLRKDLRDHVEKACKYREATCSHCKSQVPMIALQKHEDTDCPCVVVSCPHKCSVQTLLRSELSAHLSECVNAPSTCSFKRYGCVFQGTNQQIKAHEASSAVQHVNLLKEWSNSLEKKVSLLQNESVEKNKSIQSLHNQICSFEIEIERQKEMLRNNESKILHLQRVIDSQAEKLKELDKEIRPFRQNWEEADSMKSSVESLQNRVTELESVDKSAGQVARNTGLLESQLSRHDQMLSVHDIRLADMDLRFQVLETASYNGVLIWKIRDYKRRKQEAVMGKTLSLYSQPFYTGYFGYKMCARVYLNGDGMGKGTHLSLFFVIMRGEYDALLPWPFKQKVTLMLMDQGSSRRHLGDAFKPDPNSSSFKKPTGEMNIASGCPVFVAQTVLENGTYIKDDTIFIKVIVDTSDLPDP

binding result [1]: binds
binding result [2]: binds
B1: human CD40 antigen expressed on the surface of cells (receptor)
chain: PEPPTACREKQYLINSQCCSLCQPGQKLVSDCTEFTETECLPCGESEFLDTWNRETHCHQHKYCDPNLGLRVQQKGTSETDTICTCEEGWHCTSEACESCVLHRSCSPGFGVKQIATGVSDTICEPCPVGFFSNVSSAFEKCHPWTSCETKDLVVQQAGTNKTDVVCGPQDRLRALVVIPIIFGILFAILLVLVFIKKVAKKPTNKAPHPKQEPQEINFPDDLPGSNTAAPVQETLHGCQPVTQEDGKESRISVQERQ
notes: Cells: Ramos lymphoma line, EBV-transformed B cells, normal human B cells/PBMC, NHL and CLL patient cells, carcinoma tissue; also called cell surface CD40; cell-surface CD40
